# Laboratory results from the supplement of paper PMC9135407.
# Where “and” joins values, the source holds several entries; their conditions need not be identical. Equal entries are not always repeated. Structures can show the parent of a compound that is named as a salt. Among all 5,800 compounds or so, about 620 (11%) showed activity.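 Rule for the calls: active = score above a cut-off or among the top three wells of a plate; in these data no inactive exceeds 0.85.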 The entries are a selection whose mix differs from that of the whole data set.
# Tested on: primary human hepatic stellate cells (donor 1)
# Experiment: scaled lipid accumulation score (0 = DMSO-like, 1 = nortriptyline-like); higher = stronger HSC inactivation (lipid re-accumulation), active = hit call of the paper
# Conditions: 48 h
# [1] = library stock concentration: 10 mM
# [2] = library stock concentration: 3.33 mM
# [3] = library stock concentration: 1 mM
structure (smiles),measurement,setting,value
CC(=O)NC1CCSC1=O (racemic) [N-Acetyl-DL-homocysteine Thiolactone],scaled lipid accumulation score,,inactive: ≤ 0
CC(Cc1ccccc1)NCCC(c1ccccc1)c1ccccc1 (centres undefined) [Prenylamine lactate],scaled lipid accumulation score,,inactive: ≤ 0
COc1ccc(C[C@@H]2NC[C@@H](O)[C@@H]2OC(C)=O)cc1 [Anisomycin],scaled lipid accumulation score,library stock concentration: 18.8 mM,active: 0.899
NCCc1c[nH]c2ccccc12 [Tryptamine hydrochloride],scaled lipid accumulation score,[1],inactive: 0.31
NCCc1c[nH]c2ccccc12 [Tryptamine],scaled lipid accumulation score,[1],inactive: 0.263
O=C(O[C@H]1C[N+]2(CCCOc3ccccc3)CCC1CC2)C(O)(c1cccs1)c1cccs1 [Aclidinium Bromide],scaled lipid accumulation score,[2],inactive: ≤ 0
same,scaled lipid accumulation score,[1],inactive: ≤ -0.001
CCCCC/C=C\C/C=C\C/C=C\C/C=C\CCCC(=O)NCCc1c[nH]c2ccc(O)cc12 [Arachidonoyl Serotonin],scaled lipid accumulation score,[3],inactive: 0.006
Clc1ccc(C(OCCN2CCCCC2)c2ccccc2)cc1 (centres undefined) [Cloperastine hydrochloride],scaled lipid accumulation score,,inactive: 0.488
same,scaled lipid accumulation score,[1],inactive: 0.544
C[C@@H](CO)NC(=O)[C@@H]1C=C2c3cccc4[nH]cc(c34)C[C@H]2N(C)C1 [Ergonovine maleate],scaled lipid accumulation score,library stock concentration: 4.5 mM,inactive: ≤ -0.001
same,scaled lipid accumulation score,[1],inactive: ≤ 0
CN[C@@H]1C[C@H]2O[C@@](C)([C@@H]1OC)n1c3ccccc3c3c4c(c5c6ccccc6n2c5c31)C(=O)NC4 [staurosporine],scaled lipid accumulation score,library stock concentration: 10.7 mM,inactive: 0.643
CN1CC(CNC(=O)OCc2ccccc2)C[C@H]2c3cccc4c3c(cn4C)CC21 (some centres undefined) [Metergoline],scaled lipid accumulation score,[1],active: 1.05
CC[C@@H]1/C=C/C=C/C[C@H](C)[C@H](O)[C@](C)(O)C(=O)[C@H](C)[C@@H](O)[C@H](C)C(=O)[C@H](C)[C@@H](O)[C@H](C)/C=C/C(=O)O[C@H]2[C@@H](C)[C@@H](CC1)O[C@@]1(CC[C@@H](C)[C@@H](C[C@H](C)O)O1)[C@@H]2C [Oligomycin A],scaled lipid accumulation score,[2],inactive: ≤ 0
same,scaled lipid accumulation score,library stock concentration: 6.3 mM,inactive: 0.799
same,scaled lipid accumulation score,[1],inactive: ≤ 0
CC(C)(C)[C@]1(O)CC2OC(=O)CC23C(=O)OC2OC(=O)[C@H](O)C231 (some centres undefined) [Bilobalide],scaled lipid accumulation score,[2],inactive: ≤ 0
same,scaled lipid accumulation score,[1],inactive: ≤ 0
Cc1cc(SCc2sc(-c3ccc(C(F)(F)F)c(F)c3)nc2C)ccc1OCC(=O)O,scaled lipid accumulation score,[3],inactive: 0.038
same,scaled lipid accumulation score,[2],inactive: ≤ -0.009
same,scaled lipid accumulation score,[1],inactive: ≤ 0 and inactive: 0.045
NC(=O)C[S+]([O-])C(c1ccccc1)c1ccccc1 (centres undefined) [Modafinil],scaled lipid accumulation score,library stock concentration: 7.3 mM,inactive: ≤ 0
same,scaled lipid accumulation score,[1],inactive: ≤ 0 and inactive: 0.03
